According to PubChem BioAssay AID485344 (National Center for Advancing Translational Sciences (NCATS), 2010):
Values joined by “and” are separate entries in the source; they are usually repeats but may differ in a detail not shown here. Equal entries are not always repeated. The campaign covered roughly 340,000 compounds. About 6,900 (2%) were called active. Cut-off read from the data, not from the text of the source: active = inhibition above about 30%; inactive = below that, where a call was filed. Only a part is listed here, and it is no random draw. Where no call is shown, the source filed none.
Note: 0% is about no effect.

What follows are molecules tested against D(2) dopamine receptor (Homo sapiens) (UniProt P14416) (assay: HTS Assay for Allosteric Antagonists of the Human D2 Dopamine Receptor: Primary Screen for Antagonists). Conditions: HEK293 TREx D2 cells, calcium flux, dopamine EC80; at 10 µM; stronger effect = higher value.
Sequence of UniProt P14416 (P14416 whole entry, looked up): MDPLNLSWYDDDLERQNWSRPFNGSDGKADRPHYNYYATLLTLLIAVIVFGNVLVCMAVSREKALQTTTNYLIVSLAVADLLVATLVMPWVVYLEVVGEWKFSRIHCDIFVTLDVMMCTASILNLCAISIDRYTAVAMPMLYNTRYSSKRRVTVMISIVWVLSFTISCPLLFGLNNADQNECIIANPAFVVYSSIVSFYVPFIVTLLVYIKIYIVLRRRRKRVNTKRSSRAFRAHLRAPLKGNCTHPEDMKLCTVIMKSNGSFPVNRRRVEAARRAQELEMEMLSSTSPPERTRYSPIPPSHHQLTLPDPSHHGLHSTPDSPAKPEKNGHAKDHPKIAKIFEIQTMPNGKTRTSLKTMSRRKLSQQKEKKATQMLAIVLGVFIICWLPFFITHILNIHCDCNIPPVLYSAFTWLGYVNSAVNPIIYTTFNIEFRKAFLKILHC
How it was run: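 Calcium mobilization kinetics were recorded at 1 s intervals in tetracycline-induced HEK293 T-REx D2 cells, first for 180 s after compound addition and then 180 s after EC80 dopamine.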
`O=C(CCNS(=O)(=O)c1ccc(OC(F)(F)F)cc1)NCCc1c[nH]c2ccccc12` was tested, and the inhibition was active: 39.7%.
For `Cc1ccc(CCNS(=O)(=O)c2cc(-c3cc(C)no3)ccc2C)cc1`, the inhibition was 0.171%.
`O=C(NC1CC(=O)N(c2cccc(F)c2)C1)c1cccs1` (centres undefined) showed an inhibition of 17%.
Molecule `CCOc1ccc(C(=O)NCc2ccc3c(c2)CCN3C(=O)c2ccc(Cl)cc2)cc1` has an inhibition of -3.19%.
Molecule `CC(C)N(C(=O)Cn1cc(SCC(=O)Nc2ccccc2F)c2ccccc21)C(C)C` has an inhibition of -11.3%.
Work on `Cc1cccc(-n2ncc(C(=O)N3CCOCC3)c2C2CCN(C(=O)OC(C)(C)C)CC2)c1` yielded an inhibition of 1.85%.
With `COCCN(Cc1cccs1)S(=O)(=O)c1cc(-c2cc(C)no2)ccc1C` the inhibition was 4.55%.
Work on `Cn1nnc2c(N3CCN(c4cccc(Cl)c4)CC3)ncnc21` yielded an inhibition of 8.4%.
Molecule `COCCCNC(=O)c1c(NC(=O)Cc2coc3c(C)c(C)ccc23)sc2c1CCCC2` has an inhibition of -9.34%.
In the case of `Cc1cccc(C(=O)OCC(=O)NN2C(=O)NC3(CCC(C)CC3)C2=O)c1O` (centres undefined), the inhibition is reported as active: 30.6%.
`CCCCOC(=O)c1c(N)n(-c2ccc(OC)cc2OC)c2nc3ccccc3nc12` showed an inhibition of -20.9%.
Work on `CCC(Sc1nnc2c(n1)[nH]c1ccccc12)C(=O)Nc1nnc(C(C)C)s1` (centres undefined) yielded an inhibition of -8.36%.
Molecule `CCCCN(CC)CCCNC(=O)CS(=O)(=O)Cc1nc(-c2ccc(C)cc2)oc1C` has an inhibition of 13%.
Work on `O=C(Nc1nnc(N2CCCCCC2)s1)Nc1cc(F)ccc1F` yielded an inhibition of 19.5%.
`CCCOc1ccc(C(=O)Nc2ccc3oc(-c4ccncc4)nc3c2)cc1` was tested, and the inhibition was -3.02%.
`O=C(NCc1ccc(Cl)cc1)c1cnc2sc(N3CCOCC3)nn2c1=O` showed an inhibition of 7.74%.
`Cc1c2cnn(CC(=O)NCc3ccc(F)cc3)c(=O)c2c(C)n1Cc1cccc(Cl)c1` gave an inhibition of 2.63%.
`CCOCCCN(Cc1ccco1)S(=O)(=O)c1cc2c(cc1Cl)NC(=O)CO2` was tested, and the inhibition was 0.0593%.
Molecule `COc1ccc(NC(c2nnc(-c3ccccc3)o2)c2ccccc2F)cc1Cl` (centres undefined) has an inhibition of -13.2%.
Work on `COc1cc(NC(=O)CSc2nnc(C)n3c2cc2oc(C)cc23)cc(OC)c1` yielded an inhibition of 6.65%.
`Cc1ccccc1-c1noc(-c2ccc(N3CCCCC3)c([N+](=O)[O-])c2)n1` was tested, and the inhibition was 18.7%.
For `CCc1ccc(OC(C)C(=O)N2CCC(c3nc4ccccc4o3)CC2)cc1` (centres undefined), the inhibition was 0.336%.
Molecule `Cc1ccc(C(=O)Nc2ccc3c(c2)n(C)c(=O)c(=O)n3C)cc1` has an inhibition of -8.95%.
`COc1ccc(CNS(=O)(=O)c2ccc(N3CCCCS3(=O)=O)cc2)cc1` gave an inhibition of 10.8%.
Molecule `CC1CCN(Cc2c(O)ccc3c(=O)c(Oc4ccccc4Cl)c(C(F)(F)F)oc23)CC1` has an inhibition of 11.2%.
With `Cc1ccc(NC(=O)Cn2nc(C(=O)Nc3ccc(C)cc3)ccc2=O)cc1` the inhibition was 9.2%.
`O=C(COc1ccccc1F)Nc1ccc2nc(SCCOc3ccccc3)sc2c1` showed an inhibition of 9.81%.
`COc1ccc(NC(=O)CC2C(=O)N(c3cccc(OC)c3)C(=O)N2CCc2cccs2)cc1` (centres undefined) gave an inhibition of 20.7%.
`Cc1ccc(NC(=O)Cn2c(=O)n(Cc3nc(-c4ccccc4)no3)c(=O)c3cc4c(cc32)OCO4)cc1F` showed an inhibition of -0.73%.
With `CC(C)c1ccc(Cn2c(COc3ccccc3)nc3ccccc32)cc1` the inhibition was 3.18%.
Work on `COc1ccc(S(=O)(=O)NCC(c2ccco2)S(=O)(=O)c2ccc(C)cc2)cc1F` (centres undefined) yielded an inhibition of 13.3%.
With `Cc1sc(NC(=O)CCC(=O)O)c(C(N)=O)c1-c1ccccc1` the inhibition was active: 47.5%.
`CCn1nc(C)c2c(-c3ccccc3)cc(=O)n(C(C)C(=O)NCCC(C)C)c21` (centres undefined) showed an inhibition of -9.76%.
Work on `Cc1ccccc1C(=O)Nc1nnc(S(=O)(=O)N(C)Cc2ccccc2)s1` yielded an inhibition of 14.3%.
Work on `COc1ccc(-n2c(-c3ccc(C)cc3)cc3c2CC(C)(C)CC3=O)cc1Cl` yielded an inhibition of -7.16%.
In the case of `CCOC(=O)C1(Cc2ccccc2)CCN(Cc2nccn2CC)CC1`, the inhibition is reported as active: 65.2%.
`CCOC(=O)c1ccc(NC(=O)CC2C(=O)N(c3ccc(F)cc3)C(=O)N2Cc2cccnc2)cc1` (centres undefined) was tested, and the inhibition was 2.07%.
Molecule `CC1CCN(C(=O)Cn2c(=O)n(CC3CCC(C(=O)NC(C)C)CC3)c(=O)c3sccc32)CC1` (centres undefined) has an inhibition of 6.05%.
For `O=C(NCCCN1CCCCC1)c1sc2ncccc2c1-n1cccc1`, the inhibition was 9.96%.
`COc1ccc(-c2nc(SCC(=O)NC3CCCC3)c(-c3ccc(F)cc3)[nH]2)cc1` was tested, and the inhibition was -8.05%.
`O=C(Nc1cc(-c2nc3ccccc3o2)ccc1Cl)c1sc2c([N+](=O)[O-])cccc2c1Cl` gave an inhibition of -12.9%.
`CCOc1ccc(CN2CCc3nc(N4CCN(c5ccccc5OC)CC4)ncc3C2)cc1OC` gave an inhibition of -7.44%.
For `CC(C)(C)OC(=O)N1CCC(c2c(C(=O)NCc3cccc(Cl)c3)cnn2-c2ccc(F)cc2)CC1`, the inhibition was -7.57%.
`COc1cc(/C=C(\C#N)C(=O)NCC2CCCO2)ccc1O` (centres undefined) showed an inhibition of 5.64%.
`CCc1ccccc1NC(=O)CSc1nc(-c2cccc(Cl)c2)nc2c1Cc1c(CO)cnc(C)c1O2` showed an inhibition of -3.41%.
Molecule `Cc1cc(C)n(C(C)CC(=O)Nc2cccc(C(F)(F)F)c2)n1` (centres undefined) has an inhibition of -0.495%.
For `CCN(CC)c1ccc(NC(=O)C2CCN(c3nnc(-n4cccc4)s3)CC2)c(C)c1`, the inhibition was 2.29%.
`CC1=C(c2ccc(Cl)cc2)S(=O)(=O)NC1=NCCCN1CCN(c2cc(C)ccc2C)CC1` gave an inhibition of 13.3%.
For `CCC(CC)C(=O)OCc1cc(=O)n2nc(C3CC3)sc2n1`, the inhibition was -10.2%.
`Cn1cc(-c2cc3n(n2)CCC(=O)N3CCCC(=O)NCc2ccc(Cl)cc2)c2ccccc21` gave an inhibition of -14.2%.
In the case of `O=C(CCCn1c(=O)c2cccn2c2ccccc21)Nc1cc(C(F)(F)F)ccc1Cl`, the inhibition is reported as -3.37%.
For `CC1C(=O)Nc2ccc(S(=O)(=O)N3CCCCC3)cc2NC1=O` (centres undefined), the inhibition was 4%.
Molecule `COc1ccc(Cn2c(CCC(=O)Nc3cc(OC)c(OC)c(OC)c3)nc3cccnc32)cc1` has an inhibition of -1.12%.
Molecule `O=C(CSc1nccn1Cc1ccccc1)NCc1ccco1` has an inhibition of -10.5%.
For `CCOC(=O)c1cc(-c2ccc(OC)cc2)n(CCC(=O)Nc2ccccc2OC)c1C`, the inhibition was -24.8%.
For `CCOc1ccccc1NC(=O)CN1C(=O)COc2ccc(S(=O)(=O)N3CCOCC3)cc21`, the inhibition was 4.03% and active: 36.3%.
With `CCOC(=O)c1ccc(N2C(=O)c3[nH]nc(-c4ccccc4)c3C2c2ccc(CC)cc2)cc1` (centres undefined) the inhibition was 4.84%.
Molecule `CCOc1ccccc1C(=O)N(Cc1ccco1)Cc1ccco1` has an inhibition of 19.9%.
`O=C(Cn1c(=O)n(Cc2nc(-c3ccccc3)no2)c(=O)c2ccccc21)Nc1cccc(C(F)(F)F)c1` was tested, and the inhibition was 13.8%.
With `O=C(c1ccc2c(c1)N(Cc1ccccc1F)C(=O)c1ccccc1S2(=O)=O)N1CCC(Cc2ccccc2)CC1` the inhibition was 22.5%.
`COc1ccc(-c2cc(C(=O)Nc3c(C(=O)c4ccc(C)cc4)oc4ccccc34)no2)cc1` showed an inhibition of -9.82%.
For `COc1ccccc1CNC(=O)C1CCCN(S(=O)(=O)c2ccc3c(c2)oc(=O)n3C)C1` (centres undefined), the inhibition was 11.5%.
With `CCOC(=O)Cn1c(=O)n(CC2CCCO2)c2nc(-c3ccccc3OC)nc(C(N)=O)c21` (centres undefined) the inhibition was -4.82%.
`O=c1c2sc3ccccc3c2n(Cc2cccc(F)c2)c(=O)n1Cc1ccccc1` gave an inhibition of -3.25%.
`O=C(NC1CC(=O)N(c2ccc(F)cc2)C1)c1ccc(S(=O)(=O)N2CCCCC2)cc1` (centres undefined) was tested, and the inhibition was -2.45%.
For `O=C(NCc1cccs1)c1ccc2c(=O)n3nc(Nc4ccccc4)sc3nc2c1`, the inhibition was 13.3%.
For `Cc1ccc2c(c1Br)C(O)(CC(=O)c1ccc(F)cc1)C(=O)N2` (centres undefined), the inhibition was -3.74%.
`COC(=O)c1ccc(OCC2c3cc(OC)c(OC)cc3CCN2C(=O)Cc2ccc(OC)cc2)cc1` (centres undefined) was tested, and the inhibition was 7%.
In the case of `COc1c(Cl)cccc1-c1cn2ccc(C)cc2n1`, the inhibition is reported as active: 34.8%.
Molecule `CCOc1ccc(N2CC(NC(=O)C(=O)c3c[nH]c4ccccc34)CC2=O)cc1` (centres undefined) has an inhibition of -6.92%.
`COc1ccc(C2NC(=O)N(C)C3=C2C(=O)N(c2cccc(Cl)c2)C3)cc1` (centres undefined) was tested, and the inhibition was 19%.
For `CCc1ccc(Sc2cc(C(=O)NCc3cccc(OC)c3)c3ccccc3n2)cc1`, the inhibition was -4.47%.
`Cc1cccc(NC(=O)CSc2cn(CC(=O)N3CCCCCC3)c3ccccc23)c1` showed an inhibition of -9.04%.
For `Cc1cc(OC(C)C(=O)Nc2c(C(=O)c3ccc(F)cc3)oc3ccccc23)ccc1Cl` (centres undefined), the inhibition was -10.5%.
`CCc1ccc(Sc2cc(C(=O)NCc3ccccc3OC)c3ccccc3n2)cc1` was tested, and the inhibition was 4.6%.
`CN(C)S(=O)(=O)N(CC(=O)NCCSCc1ccccc1)c1ccccc1` gave an inhibition of 5.26%.
`CCCCCn1c(=O)[nH]c2cc(C(=O)Nc3cc(C)cc(C)c3)ccc2c1=O` showed an inhibition of -3.57%.
`Cc1cccc(N2C(=O)N(CC(=O)C(C)(C)C)c3ccccc3S2(=O)=O)c1C` was tested, and the inhibition was 5.08%.
Molecule `COc1ccc(Cl)cc1NC(=O)c1cc(S(=O)(=O)NC2CCCCCC2)ccc1F` has an inhibition of 4.84%.
In the case of `Cc1ccc(C)c(NC(=O)CN2CCCN(Cc3cccc(Cl)c3)S2(=O)=O)c1`, the inhibition is reported as 14.9%.
Molecule `Cc1ccc(OCc2nc(-c3ccc(C(=O)N4CCN(c5ccccc5F)CC4)cc3)oc2C)cc1` has an inhibition of 2.72%.
`Cn1nc(C(=O)NCc2ccc(Cl)cc2)c2c1-c1ccccc1S(=O)(=O)C2` gave an inhibition of 7.17%.
In the case of `Cc1cccc(-n2ncc(C(=O)N3CCN(c4ccc(Cl)cc4)CC3)c2C2CCN(C(=O)OC(C)(C)C)CC2)c1`, the inhibition is reported as -15.6%.
With `COc1ccc(CNC(=O)Cn2c(SCC(=O)Nc3ccc(OC)cc3)nc3ccccc32)cc1` the inhibition was -0.277%.
In the case of `Cc1ccc(NC(=O)c2ccc(-c3cccc(Cl)c3C)o2)cc1`, the inhibition is reported as -9.05%.
For `Cc1nc2c(-c3ccccc3)cnn2c(N2CCOCC2)c1C`, the inhibition was active: 30.8%.
With `COc1ccc(OC)c(CNC(=O)c2cc3c(-c4ccc(OC)c(OC)c4)nn(C)c3s2)c1` the inhibition was -5.05%.
In the case of `CCc1cccc(NC(=O)CN2C(=O)COc3ccc(S(=O)(=O)Nc4ccccc4)cc32)c1`, the inhibition is reported as -5.57%.
In the case of `Cc1nnc(SCc2cnc(-c3ccc(C(C)C)cc3)s2)n1C`, the inhibition is reported as active: 66.5%.
Molecule `Cc1ccc(CSc2nc3ccc(NC(=O)COc4ccccc4)cc3s2)cc1` has an inhibition of 4.29%.
With `CCOC(=O)c1ccc(N2C(=O)c3[nH]nc(-c4ccc(C)cc4)c3C2c2cccc(F)c2)cc1` (centres undefined) the inhibition was -5.76%.
For `CCc1ccc(C(=O)c2cn(CC(=O)Nc3cccc(OC)c3)c3ccc(OC)cc3c2=O)cc1`, the inhibition was -6.1%.
`COc1ccccc1N1CCN(c2ncnc3c2cnn3-c2cc(Cl)ccc2C)CC1` gave an inhibition of 0.618%.
For `COc1ccc(OCC(=O)NCc2ccc3c(c2)CCN3C(=O)c2ccccc2)cc1`, the inhibition was 4.02%.
